Results: paper PMC8175350, “Drug repurposing screens identify chemical entities for the development of COVID-19 interventions” (Nature Communications, 2021)
Values joined by “and” are separate entries in the source; they are usually repeats but may differ in a detail not shown here. Equal entries are not always repeated. Where two headings read alike, the source gives them in different places. Further values from the same series stand in other lists.

Tested on: SARS-CoV-2
Type: cell-based
Conditions: HeLa-ACE2, replicate wells n=1-3

Compound	%infected (concentration log[M] -8.0047)	%infected (concentration log[M] -8.48182)	%infected (concentration log[M] -8.95894)	%infected (concentration log[M] -6.4484)	%infected (concentration log[M] -6.9255)	%infected (concentration log[M] -7.4026)	%infected (concentration log[M] -7.8798)	%infected (concentration log[M] -6.09621)	%infected (concentration log[M] -6.57334)	%infected (concentration log[M] -7.05046)
Cc1cccc(/C=N/Nc2cc(N3CCOCC3)nc(OCCc3ccccn3)n2)c1 [Apilimod]	-65.1628% and -50.4241%	-30.5207% and -37.7731% and -31.008% and -19.9214% and -34.8787% and -24.3256% and -31.1044% and -49.3084% and -24.1686%	-15.5766% and -9.504% and -5.148% and -21.2775% and -12.3754% and -4.023% and -19.893% and -22.0413% and -25.061%	–	–	–	–	–	–	–
COc1ccc(C[C@H](N)C(=O)N[C@H]2[C@@H](O)[C@H](n3cnc4c(N(C)C)ncnc43)O[C@@H]2CO)cc1 [Puromycin]	–	–	–	-1.769% and 4.74% and 2.092% and -22.3745% and -9.86% and -30.6458% and -12.4548% and -2.689%	16.503% and 24.8671% and 7.596% and 10.4443% and -4.261% and -4.437% and 8.087% and 10.8457% and -1.191%	8.129% and 3.2187% and 1.332% and 4.206% and 7.482% and 1.836% and 5.209% and -6.283% and -4.717%	4.457% and 3.21% and 6.351% and -0.4188% and 2.19% and 8.65% and 15.3688% and 8.111% and 5.058%	–	–	–
CCC(CC)COC(=O)[C@H](C)N[P@](=O)(OC[C@H]1O[C@@](C#N)(c2ccc3c(N)ncnn23)[C@H](O)[C@@H]1O)Oc1ccccc1 [Remdesivir]	8.73% and -1.514% and 10.2626% and 8.052% and 9.795% and 0.1568% and -9.185% and 9.12% and 15.1715%	–	–	–	–	–	–	-100.159% and -100.345% and -98.3858%	-92.2917% and -84.4831% and -83.5663% and -86.7867% and -95.3196% and -98.1415% and -96.6221% and -91.1676% and -87.7705%	-42.6135% and -4.7753% and -28.0619% and -19.0689% and -37.5548% and -30.7902% and -26.9855% and -34.3961% and -28.2794%
